# Results taken from publication PMC4081100.
# Only a part is listed here, and it is no random draw. At the low end of the ranking, values are background and their order means little.
# Molecular target: GST-WRKY1(266-371) (UniProt Q9SI37)
# Assay: universal protein binding microarray (PBM)
# Settings: transcription factors of Arabidopsis thaliana; high values mean tight binding; most listed sequences are background and not binding sites; double strand, one strand shown
row,Sequence,binding signal
1,AAGGAATG,0.0844 E-score
2,AGGGAAAG,-0.0405 E-score
3,CACGCTAG,-0.00864 E-score
4,TAGGGAAA,-0.0394 E-score
5,ACGCCACG,-0.103 E-score
6,GGAGGTAA,-0.103 E-score
7,CACTCAAC,-0.058 E-score
8,CACACGCC,-0.213 E-score
9,GGTCAAAA,0.478 E-score
10,GAAGAAAC,-0.0533 E-score
11,CACGCGAA,-0.0622 E-score
12,TATACGCA,-0.0718 E-score
13,ACGCCACC,-0.128 E-score
14,CTTACGCA,-0.0122 E-score
